Source: PubChem BioAssay AID360 (National Center for Advancing Translational Sciences (NCATS), 2006)
Hit rate of the full screen: of about 48,000 compounds, about 550 (1.1%) were called active. Inconclusive results (about 4%) are left out. Rule as the data show it: active = potency below about 15 µM; inconclusive = mostly about 16 µM to 33 µM; inactive = weaker than that. Some of the results follow.

Target: Lysosomal acid glucosylceramidase (Homo sapiens) (UniProt P04062)
Assay: Glucocerebrosidase;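 also: the screen sought inhibitors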
Settings: purified enzyme, resorufin glucoside fluorescence (screen aimed at inhibitors), 20 min
In short: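 Wild-type enzyme at 0.2 nM final in 50mM citric acid/KH2PO4, 10mM sodium taurocholate, 0.01% tween-20, pH 5.9, with resorufin beta-D-glucopyranoside at 30 uM final. Compounds titrated, 20 min at RT, red fluorescence read; AC50 from titration.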
Potency is read from the fitted curve at half-maximal effect.

Chain of UniProt P04062 (P04062 whole entry, looked up): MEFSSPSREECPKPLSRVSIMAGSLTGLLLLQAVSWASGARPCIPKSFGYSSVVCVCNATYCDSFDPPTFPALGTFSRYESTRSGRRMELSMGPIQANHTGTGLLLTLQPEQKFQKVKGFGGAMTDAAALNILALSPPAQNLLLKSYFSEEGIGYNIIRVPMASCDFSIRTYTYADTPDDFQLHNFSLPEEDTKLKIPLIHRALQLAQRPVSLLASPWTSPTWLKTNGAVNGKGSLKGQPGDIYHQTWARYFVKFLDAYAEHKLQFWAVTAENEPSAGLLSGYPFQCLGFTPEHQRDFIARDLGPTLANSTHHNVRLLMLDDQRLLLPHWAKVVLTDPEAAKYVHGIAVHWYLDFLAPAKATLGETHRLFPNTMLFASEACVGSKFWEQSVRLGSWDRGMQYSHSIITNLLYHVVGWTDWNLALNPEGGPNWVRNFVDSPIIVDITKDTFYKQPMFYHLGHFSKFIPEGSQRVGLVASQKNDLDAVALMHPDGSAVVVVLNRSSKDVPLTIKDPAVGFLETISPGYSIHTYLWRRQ

Potency, inactive:
COc1ccc(-c2cnc(N)nc2-c2ccc(OC)cc2O)cc1 > 76.9 µM
CC(C)OCCCN1C(=O)c2[nH]nc(-c3ccccc3O)c2C1c1cccc(Cl)c1 (stereo unspecified) > 76.9 µM
COc1cc(NC(=O)c2cccs2)ccc1NC(=O)c1ccco1 > 76.9 µM
CCOc1ccccc1-c1nc(C(N)=O)c2[nH]c(=O)n(-c3ccccc3)c2n1 > 76.9 µM
CCn1c(SCC(=O)Nc2ccc3c(c2)OCCO3)nnc1-c1ccco1 > 76.9 µM
N#Cc1c(N)nc2c(c1-c1ccncc1)CCCCCC2 > 76.9 µM
O=C1CCC(c2ccccc2)N1C(=O)c1cccnc1 (stereo unspecified) > 76.9 µM
COc1ccc(-c2cc(C(F)(F)F)nc(N3CCN(Cc4ccccc4)CC3)n2)cc1OC > 76.9 µM
CC(=O)Nc1ccc(S(=O)(=O)Nc2cc(C)c(-n3nc4ccccc4n3)cc2O)cc1 > 76.9 µM
Cc1nc2ccccc2n1S(=O)(=O)c1ccc(S(=O)(=O)N2CCCCCC2)cc1 > 76.9 µM
N#Cc1ccccc1S(=O)(=O)N1CCN(c2ccc(S(=O)(=O)N3CCOCC3)cn2)CC1 > 76.9 µM
O=c1c2[nH]c3ccc(F)cc3c2ncn1C1CCCCC1 > 76.9 µM
Cc1ccc(C(=O)Cn2nnc(-c3ccccc3-n3cnnn3)n2)cc1 > 76.9 µM
O=C(C1CC1)N1CCc2cc(S(=O)(=O)N3CCCc4ccccc43)ccc21 > 76.9 µM
CCOC(=O)CN1C(=O)C(C)(C)Oc2ccc(C(=O)Nc3ccccc3)cc21 > 76.9 µM
COc1cc(SC)ccc1C(=O)Nc1ccon1 > 76.9 µM
CC(C)OCCCNC(=O)c1cccs1 > 76.9 µM
COc1cccc(-n2nnnc2SCC(=O)N2CCCc3ccccc32)c1 > 76.9 µM
CCOC(=O)c1oc2c(O)c(O)ccc2c(=O)c1-c1nncn1-c1ccccc1 > 76.9 µM
Cc1cccc(-n2c(N)cc(=O)nc2SCC(=O)Nc2ccccc2)c1 > 76.9 µM
c1ccc(CC2CCN(c3nc4ccccc4n4nnnc34)CC2)cc1 > 76.9 µM
O=C(Nc1ccncc1)C1(c2ccccc2)CCCC1 > 76.9 µM
COC(=O)c1cccc(S(=O)(=O)N(Cc2ccco2)Cc2cc3ccc(OC)cc3[nH]c2=O)c1 > 76.9 µM
CCOC(=O)N1CCC(Nc2c(Nc3ccc(C)c(C)c3)c(=O)c2=O)CC1 > 76.9 µM
CC(=O)c1ccc(N2CCN(S(=O)(=O)c3cccc(S(=O)(=O)N4CCOCC4)c3)CC2)cc1 > 76.9 µM
CC1(C)NC(=O)N(CCCCOc2ccc3c(c2)CCC3)C1=O > 76.9 µM
CC(Sc1ccccc1)C(=O)Nc1ccc(S(=O)(=O)N2CCOCC2)cc1 (stereo unspecified) > 76.9 µM
O=C(CN1CCN(c2ccc(F)cc2)CC1)OCc1ccccc1 > 76.9 µM
COc1cccc(-c2nnc(SCC(=O)N3CCCC3=O)n2-c2ccccc2)c1 > 76.9 µM
C=CCn1cc(C(=O)OC)c(=O)c2cc(S(=O)(=O)N3CCC(C)CC3)ccc21 > 76.9 µM
O=C(COc1ccc(Cl)cc1)Nc1ccccc1C(=O)NCc1ccco1 > 76.9 µM
Cn1c(NCc2cccc(Br)c2)nc2ccccc21 > 76.9 µM
CCc1nnc(NC=C2C(=O)OC(C)(C)OC2=O)s1 > 76.9 µM
Cc1nn(Cc2ccccc2Cl)c(C)c1NC(=O)C1C2CCC(O2)C1C(=O)O (stereo unspecified) > 76.9 µM
O=C1CN(C(=O)CC2c3ccccc3-c3ccccc32)CC(=O)N1 > 76.9 µM
O=c1c2c(nc3nc(COc4ccccc4)[nH]n13)CCC2 > 76.9 µM
Cc1c(C(=O)O)oc2c1C(O)CC(C)(C)C2 (stereo unspecified) > 76.9 µM
Cc1nc2c3c(-c4ccccc4)c(-c4ccccc4)oc3ncn2n1 > 76.9 µM
O=C(CN(C(=O)c1cc2c(s1)CCC2)C1CCCC1)NCc1cccs1 > 76.9 µM
Cc1ccc(NC(=O)Cn2nc(C)c3ccccc3c2=O)cc1F > 76.9 µM
OCCN1CCOCCN(CCO)CCOCC1 > 76.9 µM
COC(=O)c1ccccc1NC(=O)CN(c1ccccc1)S(=O)(=O)N(C)C > 76.9 µM
Cc1ccc(-c2ccc(S(=O)(=O)N3CCN(C)CC3)cc2)cc1
CCS(=O)(=O)N1CCC(C(=O)Nc2cccc(C(C)=O)c2)CC1 > 76.9 µM
O=C(O)CC1SC(=O)N(Cc2ccccc2)C1=O (stereo unspecified) > 76.9 µM
O=C(O)[C@@H]1CCCN1c1ncnc2sc3c(c12)CCC3 > 76.9 µM
Cc1ccc(S(=O)(=O)N2CCCC(C(=O)NCCCN3CCCCC3C)C2)cc1 (stereo unspecified) > 76.9 µM
COc1cccc(-c2nnc3n2N=C(c2cccc(Br)c2)CS3)c1 > 76.9 µM
O=C(O)CCC(=O)N1CCN(c2nc3ccccc3s2)CC1 > 76.9 µM
CCCS(=O)(=O)N1CCCC(C(=O)N2CCOCC2)C1 (stereo unspecified) > 76.9 µM
CN(C(=O)c1cc2sccc2n1C)C1CCCCC1 > 76.9 µM
O=C(CN(C(=O)CCC(=O)Nc1ccccn1)c1ccc2c(c1)OCCO2)NCCc1ccccc1 > 76.9 µM
Cc1csc(=N)n1CC(=O)N1CCc2ccccc21 > 76.9 µM
COc1ccc(Br)cc1-c1noc(-c2ccncc2)n1 > 76.9 µM
CC(C)Cc1nc(SCC(=O)NCc2ccccc2)n[nH]1 > 76.9 µM
O=c1nc2n(c3ncccc13)CCC2 > 76.9 µM
CC1CCCCN1CCNC(=O)c1ccc2c(=O)n(CCc3ccccc3)c(=O)[nH]c2c1 (stereo unspecified) > 76.9 µM
O=C(CN1C(=O)CSC1=O)Nc1ccc(F)c(F)c1F > 76.9 µM
O=C(C1CCN(S(=O)(=O)c2cccnc2)CC1)N1CCN(C2CCCC2)CC1 > 76.9 µM
O=C1CCCC2=C1C1(CCCC1)N=C(Nc1nc3ccccc3o1)N2 > 76.9 µM
C=CCn1c(N)c(C(=O)Nc2ccccc2OC)sc1=S > 76.9 µM
O=c1cc(O)n(-c2ccccc2F)c(=S)[nH]1 > 76.9 µM
N#Cc1nc(COc2ccc(Cl)cc2)oc1N1CCCCCC1 > 76.9 µM
COc1ccc(N(C(=O)C(C)C)S(=O)(=O)c2ccc3c(c2)n(C)c(=O)n3C)cc1 > 76.9 µM
CCOc1ccccc1Nc1ncccc1C(=O)N1CCCC1 > 76.9 µM
O=C1c2ccccc2C(=O)N1CCc1nn[nH]n1 > 76.9 µM
Cc1cc(C(=O)OCCO)c(C#N)c(N)n1 > 76.9 µM
O=CN1CCN(C2CC(=O)N(c3ccc4c(c3)OCO4)C2=O)CC1 (stereo unspecified) > 76.9 µM
COCCNC(=O)C(c1ccc(C)o1)N(C(=O)c1snc(C(N)=O)c1N)c1ccc(C)cc1 (stereo unspecified) > 76.9 µM
Cn1c(SCC(=O)NC(C)(C)C)nnc1-c1ccc(C(C)(C)C)cc1 > 76.9 µM
CCC1=C/C(=C/N(C)c2ccccc2)C(=O)S1 > 15.4 µM
N=c1c(C(=O)NCC2CCCO2)cc2c(=O)n3ccccc3nc2n1Cc1cccnc1 (stereo unspecified) > 76.9 µM
O=c1cc(NCC2CCCO2)[nH]c(=O)n1-c1ccc(Cl)cc1 (stereo unspecified) > 76.9 µM
NCC(O)COc1ccc2c(c1)OCO2 (stereo unspecified) > 76.9 µM
c1ccc(Oc2cc(-n3cccn3)ncn2)cc1 > 76.9 µM
Cc1nn(C)cc1CN(C)C(=O)c1nn2c(c1Cl)NC(c1cccs1)CC2C(F)(F)F (stereo unspecified) > 76.9 µM
CN(Cc1ccccc1)C(=O)COC(=O)c1ccc2c(c1)OCO2 > 76.9 µM
O=C(COC(=O)c1ccccn1)Nc1nccs1 > 76.9 µM
O=S(=O)(c1ccc(S(=O)(=O)N(Cc2ccc(F)cc2)C2CCCC2)cc1)N1CCCC1 > 76.9 µM
Cc1ccccc1-n1nc(C)c2cc(C(=O)NCc3cccnc3)sc21 > 76.9 µM
Cc1ccc(N(C(C)C(=O)Nc2ccccc2C(=O)N2CCOCC2)S(C)(=O)=O)cc1C (stereo unspecified) > 76.9 µM
O=C(CSc1nnc(CNc2ccccc2)o1)N1CCc2ccccc21 > 76.9 µM
CC(C)(C)NC(=O)Cn1nnnc1-c1nonc1N > 76.9 µM
CCOC(=O)C1CCCN(Cc2cc(Br)c(OC)cc2OC)C1 (stereo unspecified) > 76.9 µM
COc1ccc(C2(O)CCN(C(=O)NC3CCCCC3)CC2)cc1 > 76.9 µM
CC(=O)OCC(=O)NCc1ccc2c(c1)OCO2 > 76.9 µM
CCCCNS(=O)(=O)c1ccc(OC)c2ncccc12 > 76.9 µM
COCCNc1nc(C(C)(C)C)nc2c1nnn2Cc1ccccc1Cl > 76.9 µM
COc1ccccc1-c1noc(CCC(=O)Nc2ccccc2Cl)n1 > 76.9 µM
COc1ccc(OC)c(S(=O)(=O)N(C)CC(=O)N2CCc3ccccc3C2)c1 > 76.9 µM
CCn1c(=O)c(C(C)=O)nc2ccccc21 > 76.9 µM
